# Columns and labels:
# Src = target: T1, Src (Homo sapiens, UniProt P12931); test: Src pY418 autophosphorylation / activity of purified recombinant Src; type: biochemical; details: FIG. 29B
# T1 construct: purified recombinant full-length Src from Upstate Biotechnology was used; purchased Upstate Biotechnology (Lake Placid, N.Y.)
# Method: The Src kinase activity was assayed using a commercial kit (Haas et al., 2000). To determine how Na+/K+-ATPase affects Src kinase activity, the purified Src (4.5 U) was incubated with 5 μg of the purified Na+/K+-ATPase in the Src assay buffer for 30 min at room temperature. Afterward, both control Src or the Na+/K+-ATPase-bound Src were exposed to 10 μM ouabain and Src kinase activity was determined. In other experiments, the Src pY418 was measured by anti-pY418 antibody to indicate Src activation (Ma et al., 2000). To do so, the purified Src (4.5 U) was incubated with different amounts of the purified Na+/K+-ATPase or GST-Na+/K+ATPase constructs in phosphate-buffered saline (PBS) for 30 min at 37° C. Afterward, 2 mM ATP/Mg2+ was added. The reaction continued for 5 min at 37° C. and was stopped by addition of SDS sample buffer.
# The reaction was stopped by adding 5× loading buffer. pY418 was probed to measure Src activation.
# [1] = system: human prostate cancer cell (DU145); test: DU145 prostate cancer cell growth; type: cell-based; details: peptide added to DU145 cells
# Method: 2.0 μg of pYFP-C1 or pYFP-C1-ND1 plasmid was transfected into DU145 cells with Lipofectamine 2000. After 48 hr, cell numbers were counted with Trypan Blue Staining
substance,measurement,setting,value
"TAT-P3: TAT-tagged Src peptide inhibitor P3, cell membrane permeable (GRKKRRQRRRPPQSATWLALSRIAGLCNRAVFQ)",Src inhibition in vitro,Src,inhibit Src in vitro
same,DU145 cell growth,[1],inhibited cell growth
